First the molecules themselves.
B1: TEV protease; numbered along this chain (parent)
chain: MGESLFKGPRDYNPISSSICHLTNESDGHTTSLYGIGFGPFIITNKHLFRRNNGTLVVQSLHGVFKVKDTTTLQQHLVDGRDMIIIRMPKDFPPFPQKLKFREPQREERICLVTTNFQTKSMSSMVSDTSCTFPSGDGIFWKHWIQTKDGQCGSPLVSTRDGFIVGIHSASNFTNTNNYFTSVPKNFMELLTNQEAQQWVSGWRLNADSVLWGGHKVFMVKPEEPFQPVKEATQL

This experiment covers variants of B1. Kind of experiment: raw area under fraction-flipped curve 0-4 h after induction (AUC4h, not background-subtracted), DNA-recorder readout of cleavage of the substrate (dimensionless); higher = more cleavage of the substrate by the protease variant. The note with it: temperature: 34 °C; time window: 0-4 h after rhamnose induction.

Nine variants from the supplement of paper PMC12217912 can be followed below.

The other results are listed elsewhere or left out. The full chains were built here from the parent and the listed change. Inactive controls read about 0.05.
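Also: Bxb1 expression induced with 0.2% (w/v) L-rhamnose at OD600 near 0.5, cultures sampled hourly, flipped fraction per protease–substrate barcode pair counted by paired-end Illumina sequencing.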

Consider MGESLFKGPRDYNPISSSICHLTNESDGHTTSLYGIGFGPFIITNKHLFRRNNGTLVVQSLHGVWKVKDTTTLQQHLVDGRDMIIIRMPKDFPPFPQKLKFREPQREERICLVTTNFQTKSMSSMVSDTSCTFPSGDGIFWKHWIQTKDGQCGSPLVSTRDGFIVGIHSASNFTNTNNYFTSVPKNFMELLTNQEAQQWVSGWRLNADSVLWGGHKVFMVKPEEPFQPVKEATQL [F65W], for which the “area with substrate EDLYFQS” value was 0.0665, the “area with substrate EELYFQS” value was 0.113, the “area with substrate EILYFQS” value was found to be 0.0893 and the “area with substrate EKLYFQS” value worked out at 0.0967. The “area with substrate ELLYFQS” value was found to be 0.0727, the “area with substrate EMLYFQS” value was 0.1, the “area with substrate EPLYFQS” value stood at 0.107 and the “area with substrate EQLYFQS” value was found to be 0.118. The “area with substrate ERLYFQS” value was 0.103, the “area with substrate ESLYFQS” value is 0.0897, the “area with substrate EVLYFQS” value came out at 0.104 and the “area with substrate EWLYFQS” value was 0.0938. The “area with substrate EYLYFQS” value was determined as 0.149.
Regarding MGESLFKGPRDYNPISSSICHLTNESDGHTTSLYGIGFGPFIITNKHLFRRNNGTLVVQSLHGVFKVKDTTTLQQHLVDGRDMIIIRMPKDFPPFPQKLKFREPQREERICLVTTNFQTKSMSSMVSDTSCTFPSGDGIFWKHWIQTKDGQCGSPLVSTRDGFIVGIHSASNFTNTNNYFTSVPKNFMELLTNQEAQQWVSGWRLNADSVLWGGHKVFMVKPEFPFQPVKEATQL [E224F], the “area with substrate ECLYFQS” value stood at 0.108, the “area with substrate EELYFQS” value is 0.113, the “area with substrate EGLYFQS” value was 0.0879 and the “area with substrate EHLYFQS” value was 0.0894. The “area with substrate EKLYFQS” value was 0.11, the “area with substrate ELLYFQS” value is 0.0734, the “area with substrate EMLYFQS” value was 0.106 and the “area with substrate ESLYFQS” value was determined as 0.0777. In addition, the “area with substrate ETLYFQS” value is 0.0768 and the “area with substrate EWLYFQS” value was 0.0959.
Take MGESLFKGPRDYNPISSSICHLTNESDGHTTSLYGIGFGPFIITNKHLFRRNNGTLVVQSLHGVFKVKDTTTLQQHLVDGRDMIIIRMPKDFPPFPQKLKFREPQREERICLVTTNFQTKSMSSMVSDTSCTFPSGDGIFWKHWIQTKDGQCGSPLVSTRDGFIVGIHSASNFTNTNNYFTSVPKNFMELLTNQEAGQWVSGWRLNADSVLWGGHKVFMVKPEEPFQPVKEATQL [Q197G]: the “area with substrate ECLYFQS” value turned out to be 0.101, the “area with substrate EDLYFQS” value amounted to 0.103, the “area with substrate EELYFQS” value was 0.118 and the “area with substrate EGLYFQS” value is 0.075. For the same variant, the “area with substrate EHLYFQS” value was determined as 0.105, the “area with substrate EILYFQS” value was determined as 0.0794, the “area with substrate EKLYFQS” value came to 0.0979 and the “area with substrate ELLYFQS” value is 0.0886. Also, the “area with substrate EMLYFQS” value was 0.0761, the “area with substrate EQLYFQS” value amounted to 0.102, the “area with substrate ETLYFQS” value amounted to 0.118 and the “area with substrate EWLYFQS” value was found to be 0.113.
For MGESLFKGPRDYNPISSSICHLTNESDGHTTSLYGIGFGPFIITNKHLFRRNNGTLVVQSLHGVFKVKDTTTLQQHLVDGRDMIIIRMPKDFPPFPQKLKFREPQREERICLVTTNFQTKSMSSMVSDTSCTFPSGDGIFWKHWIQTKDGQCGSPLVSTRDGFIVGIHSASNFTNTNNYFTSVPKNFMELLTNQEAQQWVSGWRLNADSVLWGGHKVPMVKPEEPFQPVKEATQL [F218P], the “area with substrate ECLYFQS” value turned out to be 0.0649, the “area with substrate EDLYFQS” value worked out at 0.0562, the “area with substrate EELYFQS” value amounted to 0.0845 and the “area with substrate EHLYFQS” value came out at 0.041. For the same variant, the “area with substrate EILYFQS” value amounted to 0.0469, the “area with substrate EKLYFQS” value stood at 0.056, the “area with substrate ELLYFQS” value stood at 0.0576 and the “area with substrate EMLYFQS” value was determined as 0.0554. The “area with substrate EPLYFQS” value is 0.0738, the “area with substrate EQLYFQS” value worked out at 0.0639, the “area with substrate ESLYFQS” value was 0.0842 and the “area with substrate EVLYFQS” value came to 0.0796. The “area with substrate EWLYFQS” value stood at 0.0715 and the “area with substrate EYLYFQS” value was determined as 0.0551.
MGESLFKGPRDYNPISSSICHLTNESDGHTTSLYGIGFGPFIITNKHLFRRNNGTLVVQSLHGVFKVKDTTTLQQHLVDGRDMIIIRMPKDFPPFPQKLKFREPQREERICLVTTNFQTKSMSSMVSDTSCTFPSGDGIFWKHWIQTKDGQCGSPLVSTRDGFIVGIHSASNFTNTNNYFTSVPKNFMELLTNQEAQQWVSGWRLNADSVLWGGHKVFMVKPEEPFIPVKEATQL [Q227I]: the “area with substrate ECLYFQS” value amounted to 0.115, the “area with substrate EELYFQS” value worked out at 0.121, the “area with substrate EHLYFQS” value turned out to be 0.114 and the “area with substrate EILYFQS” value worked out at 0.0896. For the same variant, the “area with substrate EKLYFQS” value was found to be 0.0787, the “area with substrate EMLYFQS” value was 0.107, the “area with substrate EPLYFQS” value turned out to be 0.122 and the “area with substrate EQLYFQS” value is 0.0967. Moreover, the “area with substrate ERLYFQS” value came to 0.0911, the “area with substrate ESLYFQS” value came to 0.122 and the “area with substrate EVLYFQS” value stood at 0.113.
As for MGESLFKGPRDYNPISSSICHLTNESDGHTTSLYGIGFGPFIITNKHLFRRNNGTLVVQSLHGVFKVKDTTTLQQHLVDGRDMIIIRMPKDFPPFPQKLKFREPQREERICLVTTNFQTKSMSSMVSDTSCTFPSGDGIFWKHWIQTKDGQCGSPLVSTRDGFIVGIHSASNFTNTNNYFTSVPKNFMELLTNQEAQQWVSGWRLGADSVLWGGHKVFMVKPEEPFQPVKEATQL [N206G], the “area with substrate ECLYFQS” value was 0.0888, the “area with substrate EGLYFQS” value stood at 0.0841, the “area with substrate EILYFQS” value was determined as 0.0884 and the “area with substrate ELLYFQS” value was determined as 0.0815. Moreover, the “area with substrate EMLYFQS” value was 0.111, the “area with substrate ERLYFQS” value was 0.114, the “area with substrate ESLYFQS” value came out at 0.122 and the “area with substrate EVLYFQS” value was 0.0993. Moreover, the “area with substrate EYLYFQS” value came out at 0.0982.
With MGESLFKGPCDYNPISSSICHLTNESDGHTTSLYGIGFGPFIITNKHLFRRNNGTLVVQSLHGVFKVKDTTTLQQHLVDGRDMIIIRMPKDFPPFPQKLKFREPQREERICLVTTNFQTKSMSSMVSDTSCTFPSGDGIFWKHWIQTKDGQCGSPLVSTRDGFIVGIHSASNFTNTNNYFTSVPKNFMELLTNQEAQQWVSGWRLNADSVLWGGHKVFMVKPEEPFQPVKEATQL [R10C], the “area with substrate EDLYFQS” value is 0.0947, the “area with substrate EELYFQS” value was determined as 0.0975, the “area with substrate EGLYFQS” value was found to be 0.0807 and the “area with substrate EILYFQS” value was determined as 0.096. In addition, the “area with substrate EPLYFQS” value was 0.128, the “area with substrate EQLYFQS” value worked out at 0.122, the “area with substrate ESLYFQS” value is 0.0885 and the “area with substrate EVLYFQS” value is 0.0694. In addition, the “area with substrate EWLYFQS” value is 0.0608 and the “area with substrate EYLYFQS” value is 0.114.
For the variant MGESLFKGPRDYNPISSSICHLTNESDGHTTSLYGIGFGPFIITNKHLFRRNNGTLVVQSLHGVFKVKDTTTLQQHLVDGRDMIIIRMPKDFPPFPQKLKFREPQREERICLVTTNFQTKSMSSMVSDTSCTFPSGDGIFWKHWIQTKDGQCGSPLVSTRDGFIVGIHSASNFTNTNNYFTSVPKNFMELLTNQEAQQWVSGWRLNADSVLWGGHKAFMVKPEEPFQPVKEATQL [V217A], the “area with substrate ECLYFQS” value was 0.0666, the “area with substrate EDLYFQS” value is 0.0947, the “area with substrate EGLYFQS” value worked out at 0.0637 and the “area with substrate EHLYFQS” value came out at 0.0928. Moreover, the “area with substrate EILYFQS” value stood at 0.0726, the “area with substrate EKLYFQS” value worked out at 0.0754, the “area with substrate ELLYFQS” value turned out to be 0.0739 and the “area with substrate EPLYFQS” value turned out to be 0.0709. Moreover, the “area with substrate EQLYFQS” value amounted to 0.0716, the “area with substrate ESLYFQS” value amounted to 0.0888, the “area with substrate ETLYFQS” value was found to be 0.0566 and the “area with substrate EWLYFQS” value turned out to be 0.0296. The “area with substrate EYLYFQS” value amounted to 0.0834.
As to MGESLFKGPRDYNPISSSICHLTNESDGHTTSLYGIGFGPFIITNKHLFRRNNGTLVVQSLHGVFKVKDTTTLQQHLVDGRDMIIIRMPKDFPPFPQKLKFREPQREERICLVTTNFQTKSMSSMVSDTSCTFPSGDGIFWKHWIQTKDGQCGSPLVSTRDGFIVGIHSASNFTNTNNYFTSVPKNFMELLTNQEAQQWVSGWRLNADSVLWGGHKVFMVKPEEIFQPVKEATQL [P225I], the “area with substrate ECLYFQS” value came to 0.0581, the “area with substrate EDLYFQS” value worked out at 0.121, the “area with substrate EELYFQS” value was 0.0921 and the “area with substrate EILYFQS” value was 0.102. Further, the “area with substrate EKLYFQS” value amounted to 0.107, the “area with substrate EPLYFQS” value is 0.125, the “area with substrate EQLYFQS” value is 0.105 and the “area with substrate ERLYFQS” value came out at 0.0078. Also, the “area with substrate ESLYFQS” value was determined as 0.105, the “area with substrate ETLYFQS” value was determined as 0.112 and the “area with substrate EVLYFQS” value turned out to be 0.0782.
